# Experimental data reported in the supplement of paper PMC10037445.
# Several values for one entry are separate records, joined by “and”; a condition that tells them apart may be missing. Equal values may be shown once. ± gives the standard deviation of the averaged measurements. Over roughly 2,900 compounds, “IRF Lucia reporter activity, fold change vs agonist alone” has its median near 0.9; the highest 2% begin near 2.8. This is one part of the list.
# How the values were obtained:
# [1] = system: RAW-Dual; test: IRF Lucia reporter activity, fold change vs agonist alone; cytotoxicity flag (confluency mask): not cytotoxic; higher = enhanced IRF activity
# In short: (§1)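 After 50 nL of library stock was delivered by pin tool to RAW-Dual macrophages (50,000 cells/well, DMEM, 384-well plates), a PRR agonist was added 1 h later and the plates were kept at 37 °C, 5% CO2. Twenty hours later, IRF was read from supernatant by QuantiLuc luminescence and NF-κB by QuantiBlue absorbance at 620 nm. Reporter activity is stated as fold change over agonist-alone wells. Wells with IncuCyte confluency under 70% of agonist controls in both mask sets were counted as cytotoxic.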
# [2] = system: RAW-Dual; test: IRF Lucia reporter activity, fold change vs agonist alone; higher = enhanced IRF activity; conditions: agonist: MPLA (TLR4) […]
# In short: as §1
# [3] = system: RAW-Dual; test: IRF Lucia reporter activity, fold change vs agonist alone; cytotoxicity flag (confluency mask): cytotoxic (confluency <70% of control); higher = enhanced IRF activity
# In short: as §1
# [4] = agonist: 3'3'-cGAMP (STING) 10 ug/mL
# [5] = library stock concentration (final ~1000-fold dilution): 10 mM, cytotoxicity flag (confluency mask): not cytotoxic
# [6] = library stock concentration (final ~1000-fold dilution): 10 mM, cytotoxicity flag (confluency mask): cytotoxic (confluency <70% of control)
smiles,measurement,setting,value
CC(C)CC(NC(=O)CNC(=O)c1cc(Cl)ccc1Cl)B1OC(=O)CC(CC(=O)O)(C(=O)O)O1 (stereo unspecified) (library stock concentration (final ~1000-fold dilution): 10 mM),IRF Lucia reporter activity,[1]; [4],1.05
same,IRF Lucia reporter activity,[1]; agonist: LPS (TLR4) 0.1 ug/mL,1.29
Cc1cc(Nc2cc(CN3CCOCC3)c3nc(C)c(Cc4ccc(Cl)cc4F)n3n2)[nH]n1,IRF Lucia reporter activity,[2]; [5],1.08
Cc1cc(Nc2cc(CN3CCOCC3)c3nc(C)c(Cc4ccc(Cl)cc4F)n3n2)[nH]n1 (library stock concentration (final ~1000-fold dilution): 10 mM),IRF Lucia reporter activity,[1]; [4],0.996
same,IRF Lucia reporter activity,[1]; agonist: LPS (TLR4) 0.1 ug/mL,1.43
CN1CCN(c2ccc(Nc3cc(-c4cccc(-n5ccc6cc(C7CC7)cc(F)c6c5=O)c4CO)cn(C)c3=O)nc2)CC1,IRF Lucia reporter activity,[2]; [5],1.01
CN1CCN(c2ccc(Nc3cc(-c4cccc(-n5ccc6cc(C7CC7)cc(F)c6c5=O)c4CO)cn(C)c3=O)nc2)CC1 (library stock concentration (final ~1000-fold dilution): 10 mM),IRF Lucia reporter activity,[1]; [4],0.999
same,IRF Lucia reporter activity,[1]; agonist: LPS (TLR4) 0.1 ug/mL,2.24
CN(CC1COCCO1)S(=O)(=O)Nc1ccc2ccc3ncc(-c4cnn(C)c4)cc3c(=O)c2c1 (stereo unspecified),IRF Lucia reporter activity,[2]; [5],0.63
CN(CC1COCCO1)S(=O)(=O)Nc1ccc2ccc3ncc(-c4cnn(C)c4)cc3c(=O)c2c1 (stereo unspecified) (library stock concentration (final ~1000-fold dilution): 10 mM),IRF Lucia reporter activity,[1]; [4],0.306
same,IRF Lucia reporter activity,[1]; agonist: LPS (TLR4) 0.1 ug/mL,0.736
Cc1c(C)c2c(c(C)c1O)CCC(C)(CCCC(C)CCCC(C)CCCC(C)C)O2 (stereo unspecified),IRF Lucia reporter activity,[2]; [5],1.03
Cc1c(C)c2c(c(C)c1O)CCC(C)(CCCC(C)CCCC(C)CCCC(C)C)O2 (stereo unspecified) (library stock concentration (final ~1000-fold dilution): 10 mM),IRF Lucia reporter activity,[1]; [4],1.05
same,IRF Lucia reporter activity,[1]; agonist: LPS (TLR4) 0.1 ug/mL,1.48
CN1CCN(C(c2ccccc2)c2ccccc2)CC1.Cl.Cl (library stock concentration (final ~1000-fold dilution): 10 mM),IRF Lucia reporter activity,[1]; [4],0.942
same,IRF Lucia reporter activity,[1]; agonist: LPS (TLR4) 0.1 ug/mL,0.95
CN1CCN(C(c2ccccc2)c2ccccc2)CC1.Cl.Cl,IRF Lucia reporter activity,[2]; [5],0.977
C#CCNC1CCc2ccccc21.CS(=O)(=O)O (stereo unspecified),IRF Lucia reporter activity,[2]; [5],0.958
C#CCNC1CCc2ccccc21.CS(=O)(=O)O (stereo unspecified) (library stock concentration (final ~1000-fold dilution): 10 mM),IRF Lucia reporter activity,[1]; [4],1.01
same,IRF Lucia reporter activity,[1]; agonist: LPS (TLR4) 0.1 ug/mL,1.04
CCn1cc(C(=O)O)c(=O)c2cc(F)c(N3CCN(C)CC3)cc21.CS(=O)(=O)O,IRF Lucia reporter activity,[2]; [5],0.723
CCn1cc(C(=O)O)c(=O)c2cc(F)c(N3CCN(C)CC3)cc21.CS(=O)(=O)O (library stock concentration (final ~1000-fold dilution): 10 mM),IRF Lucia reporter activity,[1]; [4],0.953
same,IRF Lucia reporter activity,[1]; agonist: LPS (TLR4) 0.1 ug/mL,0.907
C[C@@H]1O[C@@H](OC[C@H]2O[C@@H](Oc3c(-c4ccc(O)c(O)c4)oc4cc(O)cc(O)c4c3=O)[C@H](O)[C@@H](O)[C@@H]2O)[C@H](O)[C@H](O)[C@H]1O (library stock concentration (final ~1000-fold dilution): 10 mM),IRF Lucia reporter activity,[1]; [4],0.0394
same,IRF Lucia reporter activity,[1]; agonist: LPS (TLR4) 0.1 ug/mL,0.168
Cc1nn(C)c(COc2ccc(N3CCN(S(=O)(=O)N(C)C)CC3)cc2)c1-c1cccc2c(CCCOc3cccc4ccccc34)c(C(=O)O)n(CCN3CCOCC3)c12 (library stock concentration (final ~1000-fold dilution): 2 mM),IRF Lucia reporter activity,[1]; [4],1.15
same,IRF Lucia reporter activity,[1]; agonist: LPS (TLR4) 0.1 ug/mL,0.908
C=Cc1c(C)c2cc3nc(cc4[nH]c(cc5nc(cc1[nH]2)C(C)=C5CCC(=O)O)c(CCC(=O)OC)c4C)C1(C)C3=CC=C(C(=O)OC)C1C(=O)OC (stereo unspecified),IRF Lucia reporter activity,[2]; [6],0.0336
C=Cc1c(C)c2cc3nc(cc4[nH]c(cc5nc(cc1[nH]2)C(C)=C5CCC(=O)O)c(CCC(=O)OC)c4C)C1(C)C3=CC=C(C(=O)OC)C1C(=O)OC (stereo unspecified) (library stock concentration (final ~1000-fold dilution): 10 mM),IRF Lucia reporter activity,[3]; [4],0.0182
same,IRF Lucia reporter activity,[3]; agonist: LPS (TLR4) 0.1 ug/mL,0.0407
NC(=O)Nc1sc(-c2ccc(F)cc2)cc1C(N)=O (library stock concentration (final ~1000-fold dilution): 10 mM),IRF Lucia reporter activity,[3]; [4],0.0273 and 0.0281
same,IRF Lucia reporter activity,[3]; agonist: LPS (TLR4) 0.1 ug/mL,0.0315 and 0.0364
NC(=O)Nc1sc(-c2ccc(F)cc2)cc1C(N)=O,IRF Lucia reporter activity,[2]; [6],0.396 ± 0.49
C/C=C1/C2C=C(C)CC1(N)c1ccc(=O)[nH]c1C2 (stereo unspecified) (library stock concentration (final ~1000-fold dilution): 2 mM),IRF Lucia reporter activity,[1]; [4],1.07
same,IRF Lucia reporter activity,[1]; agonist: LPS (TLR4) 0.1 ug/mL,0.902
C/C=C1/C2C=C(C)CC1(N)c1ccc(=O)[nH]c1C2 (stereo unspecified),IRF Lucia reporter activity,"[2]; library stock concentration (final ~1000-fold dilution): 2 mM, cytotoxicity flag (confluency mask): not cytotoxic",1.39
CCCCCCCC(=O)NC(CN1CCCC1)C(O)c1ccc2c(c1)OCCO2 (stereo unspecified) (library stock concentration (final ~1000-fold dilution): 10 mM),IRF Lucia reporter activity,[1]; [4],0.521
same,IRF Lucia reporter activity,[1]; agonist: LPS (TLR4) 0.1 ug/mL,1.22
C[N+]1(C)C2CCC1CC(OC(=O)C(O)c1ccccc1)C2 (stereo unspecified) (library stock concentration (final ~1000-fold dilution): 10 mM),IRF Lucia reporter activity,[1]; [4],1.01
same,IRF Lucia reporter activity,[1]; agonist: LPS (TLR4) 0.1 ug/mL,1.29
C[N+]1(C)C2CCC1CC(OC(=O)C(O)c1ccccc1)C2 (stereo unspecified),IRF Lucia reporter activity,[2]; [5],0.953
CN(C)c1ncnc2nc[nH]c12,IRF Lucia reporter activity,[2]; [5],0.883
CN(C)c1ncnc2nc[nH]c12 (library stock concentration (final ~1000-fold dilution): 10 mM),IRF Lucia reporter activity,[1]; [4],0.82
same,IRF Lucia reporter activity,[1]; agonist: LPS (TLR4) 0.1 ug/mL,0.533
Fc1ccc2c(/C=C/c3nnn[nH]3)c[nH]c2c1 (library stock concentration (final ~1000-fold dilution): 10 mM),IRF Lucia reporter activity,[1]; [4],1.02
same,IRF Lucia reporter activity,[1]; agonist: LPS (TLR4) 0.1 ug/mL,1.25
